Assay results published in the supplement of paper PMC8728848.
Some of the results follow.

What was measured:
Assay in all cases: glycan array binding signal (z-score within array); higher = stronger binding
Details in all cases: glycan notation: IUPAC condensed, linker removed
[1] = biological target: Neu5Ac(a2-3)Gal(b1-4)GlcNAc(b1-3)Gal
Summary of the method: (§1)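 The Consortium for Functional Glycomics database supplied 3228 glycan arrays, of which those lacking an available protein sequence were dropped. The binding signal, a within-array Z-score, was averaged across arrays of the same protein sequence and across linkers. Negative scores can be read as non-binding.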

[2] = biological target: Neu5Ac(a2-3)Gal(b1-4)GlcNAc(b1-3)Gal(b1-3)GlcNAc
Summary of the method: as §1

[3] = biological target: Neu5Ac(a2-3)Gal(b1-4)GlcNAc(b1-3)Gal(b1-4)GlcNAc
Summary of the method: as §1

[4] = biological target: Neu5Ac(a2-3)Gal(b1-4)GlcNAc(b1-3)Gal(b1-4)GlcNAc(b1-3)Gal(b1-4)GlcNAc
Summary of the method: as §1

[5] = biological target: Neu5Ac(a2-3)Gal(b1-4)GlcNAc(b1-3)Gal(b1-4)[Fuc(a1-3)]GlcNAc
Summary of the method: as §1

[6] = biological target: Neu5Ac(a2-3)Gal(b1-4)GlcNAc(b1-3)GalNAc
Summary of the method: as §1

[7] = biological target: Neu5Ac(a2-3)Gal(b1-4)GlcNAc(b1-6)[Gal(b1-3)]GalNAc
Summary of the method: as §1

[8] = biological target: Neu5Ac(a2-3)Gal(b1-4)GlcNAc(b1-6)[Neu5Ac(a2-3)Gal(b1-3)]GalNAc
Summary of the method: as §1

[9] = biological target: Neu5Ac(a2-3)Gal(b1-4)GlcNAc6S
Summary of the method: as §1

[10] = biological target: Neu5Ac(a2-3)Gal(b1-4)[Fuc(a1-3)]GlcNAc
Summary of the method: as §1

[11] = biological target: Neu5Ac(a2-3)Gal(b1-4)[Fuc(a1-3)]GlcNAc(b1-3)Gal
Summary of the method: as §1

[12] = biological target: Neu5Ac(a2-3)Gal(b1-4)[Fuc(a1-3)]GlcNAc(b1-3)Gal(b1-4)GlcNAc
Summary of the method: as §1

[13] = biological target: Neu5Ac(a2-3)Gal(b1-4)[Fuc(a1-3)]GlcNAc(b1-3)Gal(b1-4)[Fuc(a1-3)]GlcNAc(b1-3)Gal(b1-4)[Fuc(a1-3)]GlcNAc
Summary of the method: as §1

[14] = biological target: Neu5Ac(a2-3)Gal(b1-4)[Fuc(a1-3)]GlcNAc(b1-3)GalNAc
Summary of the method: as §1

[15] = biological target: Neu5Ac(a2-3)Gal(b1-4)[Fuc(a1-3)]GlcNAc(b1-6)[Gal(b1-3)]GalNAc
Summary of the method: as §1

[16] = biological target: Neu5Ac(a2-3)Gal(b1-4)[Fuc(a1-3)]GlcNAc6S
Summary of the method: as §1

[17] = biological target: Neu5Ac(a2-3)Gal6S(b1-4)GlcNAc
Summary of the method: as §1

[18] = biological target: Neu5Ac(a2-3)Gal6S(b1-4)[Fuc(a1-3)]GlcNAc
Summary of the method: as §1

[19] = biological target: Neu5Ac(a2-3)GalNAc
Summary of the method: as §1

[20] = biological target: Neu5Ac(a2-3)GalNAc(b1-4)GlcNAc
Summary of the method: as §1

[21] = biological target: Neu5Ac(a2-3)[GalNAc(b1-4)]Gal(b1-4)Glc
Summary of the method: as §1

[22] = biological target: Neu5Ac(a2-3)[GalNAc(b1-4)]Gal(b1-4)GlcNAc
Summary of the method: as §1

[23] = biological target: Neu5Ac(a2-3)[GalNAc(b1-4)]Gal(b1-4)GlcNAc(b1-3)GalNAc
Summary of the method: as §1

[24] = biological target: Neu5Ac(a2-3)[Neu5Ac(a2-6)]GalNAc
Summary of the method: as §1

[25] = biological target: Neu5Ac(a2-6)Gal
Summary of the method: as §1

[26] = biological target: Neu5Ac(a2-6)Gal(b1-3)GlcNAc(b1-3)[Gal(b1-4)GlcNAc(b1-6)]Gal(b1-4)Glc
Summary of the method: as §1

[27] = biological target: Neu5Ac(a2-6)Gal(b1-4)Glc
Summary of the method: as §1

[28] = biological target: Neu5Ac(a2-6)Gal(b1-4)GlcNAc
Summary of the method: as §1

[29] = biological target: Neu5Ac(a2-6)Gal(b1-4)GlcNAc(b1-2)Man(a1-3)Man(b1-4)GlcNAc(b1-4)GlcNAc
Summary of the method: as §1

[30] = biological target: Neu5Ac(a2-6)Gal(b1-4)GlcNAc(b1-2)Man(a1-3)[Gal(b1-4)GlcNAc(b1-2)Man(a1-6)]Man(b1-4)GlcNAc(b1-4)GlcNAc
Summary of the method: as §1

[31] = biological target: Neu5Ac(a2-6)Gal(b1-4)GlcNAc(b1-2)Man(a1-3)[GlcNAc(b1-2)Man(a1-6)]Man(b1-4)GlcNAc(b1-4)GlcNAc
Summary of the method: as §1

[32] = biological target: Neu5Ac(a2-6)Gal(b1-4)GlcNAc(b1-2)Man(a1-3)[GlcNAc(b1-2)Man(b1-4)GlcNAc(b1-2)Man(a1-6)]Man(b1-4)GlcNAc(b1-4)GlcNAc
Summary of the method: as §1

[33] = biological target: Neu5Ac(a2-6)Gal(b1-4)GlcNAc(b1-2)Man(a1-3)[Man(a1-6)]Man(b1-4)GlcNAc(b1-4)GlcNAc
Summary of the method: as §1

[34] = biological target: Neu5Ac(a2-6)Gal(b1-4)GlcNAc(b1-2)Man(a1-3)[Neu5Ac(a2-6)Gal(b1-4)GlcNAc(b1-2)Man(a1-6)]Man(b1-4)GlcNAc(b1-4)GlcNAc
Summary of the method: as §1

[35] = biological target: Neu5Ac(a2-6)Gal(b1-4)GlcNAc(b1-2)Man(a1-6)Man(b1-4)GlcNAc(b1-4)GlcNAc
Summary of the method: as §1

B1: SefD (Salmonella enterica), Q9L6K6 (protein)
chain: GAYIIRGQNNSAHKLRIRIGGEDWQPDNSGIGMVSHSDFTNEFNIYYFGNGDIPVDTYLISIYATEIEL
With B1 the “glycan array binding signal (z-score)” value [1] was 0.532, the “glycan array binding signal (z-score)” value [2] was -0.041 and the “glycan array binding signal (z-score)” value [3] was -0.178. The “glycan array binding signal (z-score)” value [4] was -0.479, the “glycan array binding signal (z-score)” value [5] was -0.166 and the “glycan array binding signal (z-score)” value [6] was -0.477. For the same binder, the “glycan array binding signal (z-score)” value [7] was 3.13, the “glycan array binding signal (z-score)” value [8] was -0.266 and the “glycan array binding signal (z-score)” value [9] was -0.38. The “glycan array binding signal (z-score)” value [10] was -0.344, the “glycan array binding signal (z-score)” value [11] was -0.059 and the “glycan array binding signal (z-score)” value [12] was 0.045. The “glycan array binding signal (z-score)” value [13] was -0.503, the “glycan array binding signal (z-score)” value [14] was 11.3 and the “glycan array binding signal (z-score)” value [15] was -0.092. For the same binder, the “glycan array binding signal (z-score)” value [16] was -0.448, the “glycan array binding signal (z-score)” value [17] was -0.274 and the “glycan array binding signal (z-score)” value [18] was -0.367. For the same binder, the “glycan array binding signal (z-score)” value [19] was -0.179, the “glycan array binding signal (z-score)” value [20] was -0.264 and the “glycan array binding signal (z-score)” value [21] was -0.476. For the same binder, the “glycan array binding signal (z-score)” value [22] was -0.226, the “glycan array binding signal (z-score)” value [23] was -0.547 and the “glycan array binding signal (z-score)” value [24] was 0.227. The “glycan array binding signal (z-score)” value [25] was -0.352, the “glycan array binding signal (z-score)” value [26] was -0.158 and the “glycan array binding signal (z-score)” value [27] was -0.45. The “glycan array binding signal (z-score)” value [28] was -0.151, the “glycan array binding signal (z-score)” value [29] was -0.493 and the “glycan array binding signal (z-score)” value [30] was 0.667. For the same binder, the “glycan array binding signal (z-score)” value [31] was -0.531, the “glycan array binding signal (z-score)” value [32] was -0.442 and the “glycan array binding signal (z-score)” value [33] was -0.301. For the same binder, the “glycan array binding signal (z-score)” value [34] was 2.08 and the “glycan array binding signal (z-score)” value [35] was -0.575.
